{
  "sequences": {"note": "The chains behind the UniProt entries cited, without tags or fusion partners.", "UniProt A0A8C0NGY6": "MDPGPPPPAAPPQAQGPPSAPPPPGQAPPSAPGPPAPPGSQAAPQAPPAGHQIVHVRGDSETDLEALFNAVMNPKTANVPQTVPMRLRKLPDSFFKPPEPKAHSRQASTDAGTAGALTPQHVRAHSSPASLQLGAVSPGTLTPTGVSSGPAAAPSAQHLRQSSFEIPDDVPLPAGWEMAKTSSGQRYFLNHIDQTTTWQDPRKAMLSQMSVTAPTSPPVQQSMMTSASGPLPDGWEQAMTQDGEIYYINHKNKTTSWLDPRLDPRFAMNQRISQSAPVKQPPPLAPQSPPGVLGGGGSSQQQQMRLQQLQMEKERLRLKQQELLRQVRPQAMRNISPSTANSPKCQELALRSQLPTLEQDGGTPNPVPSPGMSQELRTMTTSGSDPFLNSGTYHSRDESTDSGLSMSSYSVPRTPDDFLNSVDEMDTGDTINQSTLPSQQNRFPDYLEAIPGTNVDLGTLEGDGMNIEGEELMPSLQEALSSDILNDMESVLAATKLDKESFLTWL", "UniProt P46937": "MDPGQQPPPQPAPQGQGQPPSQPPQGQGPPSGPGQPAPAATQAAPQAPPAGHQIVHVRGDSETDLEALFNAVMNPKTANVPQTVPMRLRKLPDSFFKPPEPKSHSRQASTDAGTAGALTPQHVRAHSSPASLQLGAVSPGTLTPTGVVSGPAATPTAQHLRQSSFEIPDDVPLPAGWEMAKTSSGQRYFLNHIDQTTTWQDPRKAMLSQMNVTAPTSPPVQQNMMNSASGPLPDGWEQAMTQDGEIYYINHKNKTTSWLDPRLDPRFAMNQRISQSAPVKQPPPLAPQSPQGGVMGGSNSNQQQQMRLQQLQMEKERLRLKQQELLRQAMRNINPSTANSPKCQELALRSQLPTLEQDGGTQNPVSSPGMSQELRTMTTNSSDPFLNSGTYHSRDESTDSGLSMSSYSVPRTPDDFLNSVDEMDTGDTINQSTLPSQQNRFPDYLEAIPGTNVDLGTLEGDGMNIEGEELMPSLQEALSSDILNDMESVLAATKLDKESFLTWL"},
  "source": "paper PMC7901196",
  "key": {"[1]": {"target": "T1, claudin-2 (dog (endogenous in MDCK-II)) (UniProt Q95KM6)", "T1 sequence": "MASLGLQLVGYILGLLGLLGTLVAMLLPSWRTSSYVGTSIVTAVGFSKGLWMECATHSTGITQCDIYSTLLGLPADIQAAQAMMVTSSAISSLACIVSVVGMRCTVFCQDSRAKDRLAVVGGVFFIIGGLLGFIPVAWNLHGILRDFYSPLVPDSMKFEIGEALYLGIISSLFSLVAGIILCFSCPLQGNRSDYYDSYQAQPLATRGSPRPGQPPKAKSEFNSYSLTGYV", "assay": "co-IP; total MDCK-II cell lysate; immunoprecipitation with anti-claudin-2 antibody and blot with anti-YAP, or immunoprecipitation with anti-YAP antibody and blot with anti-claudin-2; endogenous proteins"}, "[2]": {"target": "T2, full-length claudin-2 with C-terminal HA tag (Cldn2^FL/HA) (UniProt P57739)", "T2 sequence": "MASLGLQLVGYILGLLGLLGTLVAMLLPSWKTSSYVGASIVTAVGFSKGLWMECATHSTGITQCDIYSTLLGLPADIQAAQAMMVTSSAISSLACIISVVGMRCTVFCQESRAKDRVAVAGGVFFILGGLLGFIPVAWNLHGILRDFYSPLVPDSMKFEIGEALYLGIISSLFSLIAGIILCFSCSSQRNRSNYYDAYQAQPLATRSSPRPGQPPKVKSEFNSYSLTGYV", "assay": "co-IP; total lysate of MDCK-II cells transfected with Cldn2^FL/HA or Cldn2^ΔPDZ/HA; immunoprecipitation with anti-HA antibody, blot with anti-HA or anti-YAP"}, "[3]": {"target": "T3, claudin-2 lacking the PDZ-binding motif, with C-terminal HA tag (Cldn2^ΔPDZ/HA) (UniProt P57739)", "T3 sequence": "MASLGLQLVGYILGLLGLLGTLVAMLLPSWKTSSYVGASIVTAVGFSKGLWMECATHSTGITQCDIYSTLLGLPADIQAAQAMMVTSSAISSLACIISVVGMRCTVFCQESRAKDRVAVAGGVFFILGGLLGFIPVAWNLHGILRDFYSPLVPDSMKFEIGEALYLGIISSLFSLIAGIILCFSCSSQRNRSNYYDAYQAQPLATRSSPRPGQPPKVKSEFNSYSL", "assay": "co-IP; total lysate of MDCK-II cells transfected with Cldn2^FL/HA or Cldn2^ΔPDZ/HA; immunoprecipitation with anti-HA antibody, blot with anti-HA or anti-YAP"}, "[4]": {"target": "T2, full-length claudin-2 with C-terminal HA tag (Cldn2^FL/HA)", "assay": "co-IP; total lysate of HK-2 cells transfected with Cldn2^HA/Full or Cldn2^ΔPDZ/HA; immunoprecipitation with anti-HA-tag antibody, blot with anti-HA and anti-YAP"}, "[5]": {"target": "T3, claudin-2 lacking the PDZ-binding motif, with C-terminal HA tag (Cldn2^ΔPDZ/HA)", "assay": "co-IP; total lysate of HK-2 cells transfected with Cldn2^HA/Full or Cldn2^ΔPDZ/HA; immunoprecipitation with anti-HA-tag antibody, blot with anti-HA and anti-YAP"}, "[6]": {"target": "YES-associated protein (YAP) (dog (endogenous in MDCK-II))", "assay": "co-IP; total MDCK-II cell lysate; immunoprecipitation with anti-claudin-2 antibody and blot with anti-YAP, or immunoprecipitation with anti-YAP antibody and blot with anti-claudin-2; endogenous proteins"}},
  "note": "Results are given in words; binding and its absence hold for the method and conditions named. Binding seen in cells or lysates may run through a third protein. Some binding calls cover weakened binding; strength is not graded here. For part of these data: Where a sequence is shown, tags or fusion partners need not be part of it.",
  "data": [
    {"molecule": "YES-associated protein (YAP) (from UniProt A0A8C0NGY6 1-506)", "values": [
      {"measurement": "binding", "setting": "[1]", "value": "binds"},
      {"measurement": "binding", "setting": "[2]", "value": "binds"},
      {"measurement": "binding", "setting": "[3]", "value": "no binding"}
    ]},
    {"molecule": "YES-associated protein (YAP) (from UniProt P46937 1-504)", "values": [
      {"measurement": "binding", "setting": "[4]", "value": "binds"},
      {"measurement": "binding", "setting": "[5]", "value": "no binding"}
    ]},
    {"molecule": "claudin-2 (protein, UniProt Q95KM6 1-230) MASLGLQLVGYILGLLGLLGTLVAMLLPSWRTSSYVGTSIVTAVGFSKGLWMECATHSTGITQCDIYSTLLGLPADIQAAQAMMVTSSAISSLACIVSVVGMRCTVFCQDSRAKDRLAVVGGVFFIIGGLLGFIPVAWNLHGILRDFYSPLVPDSMKFEIGEALYLGIISSLFSLVAGIILCFSCPLQGNRSDYYDSYQAQPLATRGSPRPGQPPKAKSEFNSYSLTGYV", "values": [
      {"measurement": "binding", "setting": "[6]", "value": "binds"}
    ]}
  ]
}
